# Source: the supplement of paper PMC4466236
# In all, about 33,000 sequences were measured (“E-score (dimensionless, -0.5 to 0.5)”: median about -0.058, highest 2% from about 0.35 on). The list shows a part of the results.
# Test system: MvaT
# Assay: PBM 8-mer E-score (mean of HK and ME arrays) (E-score (dimensionless, -0.5 to 0.5)); higher = stronger relative binding preference; most listed sequences are background and not binding sites
# Outline: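 Full-length P. aeruginosa MvaT carrying an N-terminal glutathione S-transferase tag was tested by protein binding microarray following a previously described protocol. Two universal double-stranded 60-mer arrays, ME and HK, were used, each with a constant 25-mer primer region and a variable 35-mer region covering all 8-mers. The rank-based E-score is the mean of the two arrays, parsed with a custom script. Its range runs from -0.5 to 0.5 for each 8-mer.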
row,Sequence,PBM 8-mer E-score
1,ATGAAGGG,-0.143
2,AGCTGGAG,-0.185
3,ATGCGCCC,-0.224
4,ATCGTTTA,0.0357
5,CAAGCTAC,-0.145
6,AGGGCTTG,-0.282
7,CGGGATAG,-0.00495
8,CTACGGAG,-0.173
9,GCCAGACC,-0.183
10,ACACCACG,-0.138
11,CAATGAAC,-0.0194
12,CTATCGTA,0.0644
13,CAATTTTC,0.0781
14,AGATCCTC,-0.195
15,ACCATGAG,-0.112
16,CGATCCCA,-0.08
17,AAGAAACT,0.186
18,ATCTGTTA,0.0984
19,AGGGGGCA,-0.247
20,CCTTATCC,-0.0829
21,CCCCCTGA,-0.251
22,ACGAGCAA,-0.0499

row,Sequence,PBM 8-mer E-score
1,ATTATGGC,0.202
2,CAAAATGA,0.0724
3,GTGGTATA,0.279
4,AACATAAT,0.371
5,CCGCAGTC,-0.09
6,CCTTACAG,0.0714
7,CTTTTATA,0.31
8,TACAACCA,0.102
9,ACGAATCC,-0.0548
10,AGCTCTCC,-0.237
11,CAGTAACA,0.0741
12,CCAAGCCC,-0.303
13,GTTGCGGA,0.123
14,TTGATCAA,0.194
15,ACGGACGA,-0.238
16,TAACCTGA,0.0581
17,ATGTTTTA,0.248
18,AGCATCTG,-0.136
19,AGAGAGCC,-0.296
20,CAAAATGC,-0.0608
21,AGCCTGTC,-0.172
22,AATATGGC,0.27

row,Sequence,PBM 8-mer E-score
1,AGTGCACA,0.0205
2,AGGGTTAT,-0.0153
3,CCATGAGA,-0.0578
4,GCTATGTA,0.0911
5,ACATTGGG,0.0365
6,GTGGGATA,0.139
7,ATCAGTGG,0.00645
8,CTAACGCC,-0.177
9,ATTCTACA,0.117
10,AAATTGGG,0.16
11,AGAGGGCC,-0.342
12,TACTTAGA,0.254
13,ACCAGGCA,-0.225
14,ACCCGTCC,-0.209
15,CTGTGCCC,-0.15
16,AGTGTTCA,0.0961
17,GAGGAGAC,-0.252
18,AAGCGCGC,-0.109
19,ACGTGCTG,-0.108
20,GAAACCAA,0.121
21,CCTCGATC,-0.292
22,CGATACGC,-0.172

row,Sequence,PBM 8-mer E-score
1,TCCTAGAA,-0.105
2,ATAGGGCC,-0.187
3,TCCGGGCA,-0.134
4,CCGAGTTC,-0.167
5,GACACAAC,0.0534
6,GTCACCAA,-0.101
7,AATGGGGA,-0.196
8,TGGGGGAA,-0.14
9,CCACGGTA,-0.236
10,ACGCGCTG,-0.0976
11,AATGGGCG,-0.13
12,AAGAGTTA,0.207
13,CGAGCCTA,-0.211
14,AAACAGTA,0.162
15,GCATATGA,0.176
16,CATACCGC,-0.157
17,CCTTTAGC,-0.191
18,ACCGATCC,-0.0999
19,CTGCACGA,-0.103
20,AAACGTTT,0.255
21,AGCTCGTG,-0.226
22,GCCTCCAC,-0.271

row,Sequence,PBM 8-mer E-score
1,CCCATGAA,-0.00329
2,ATGCAGAC,-0.109
3,TCAGGCAA,-0.0104
4,AACAAATG,0.172
5,CCTTTTAC,-0.0247
6,ACTTAGAT,0.255
7,GGACATAC,-0.0194
8,CTTCCAAA,0.0228
9,CGGAGCTC,-0.312
10,GAAGATCC,-0.184
11,CCCGCGAA,-0.287
12,ATCGTAAG,0.0508
13,ACTGCCGC,-0.0771
14,AGTAAAAC,0.282
15,CGTGCATC,-0.363
16,CATAGAAC,0.00582
17,AGATAACA,0.212
18,GTGCTCTA,-0.0912
19,CAGCTAGA,-0.179
20,AACGTTTG,0.0612
21,TCAGCCGA,-0.187
